Publication PMC6794377
Positions count from the first letter of the chain named. These are yes or no findings as the source states them, for the method shown. Binding seen in cells or lysates may run through a third protein. Some results given as binding are weak or reduced against the parent protein; the word gives no strength. Tags and fused reporters may be left off the sequences shown.

The chains behind the UniProt entries cited, without tags or fusion partners.
UniProt P07814: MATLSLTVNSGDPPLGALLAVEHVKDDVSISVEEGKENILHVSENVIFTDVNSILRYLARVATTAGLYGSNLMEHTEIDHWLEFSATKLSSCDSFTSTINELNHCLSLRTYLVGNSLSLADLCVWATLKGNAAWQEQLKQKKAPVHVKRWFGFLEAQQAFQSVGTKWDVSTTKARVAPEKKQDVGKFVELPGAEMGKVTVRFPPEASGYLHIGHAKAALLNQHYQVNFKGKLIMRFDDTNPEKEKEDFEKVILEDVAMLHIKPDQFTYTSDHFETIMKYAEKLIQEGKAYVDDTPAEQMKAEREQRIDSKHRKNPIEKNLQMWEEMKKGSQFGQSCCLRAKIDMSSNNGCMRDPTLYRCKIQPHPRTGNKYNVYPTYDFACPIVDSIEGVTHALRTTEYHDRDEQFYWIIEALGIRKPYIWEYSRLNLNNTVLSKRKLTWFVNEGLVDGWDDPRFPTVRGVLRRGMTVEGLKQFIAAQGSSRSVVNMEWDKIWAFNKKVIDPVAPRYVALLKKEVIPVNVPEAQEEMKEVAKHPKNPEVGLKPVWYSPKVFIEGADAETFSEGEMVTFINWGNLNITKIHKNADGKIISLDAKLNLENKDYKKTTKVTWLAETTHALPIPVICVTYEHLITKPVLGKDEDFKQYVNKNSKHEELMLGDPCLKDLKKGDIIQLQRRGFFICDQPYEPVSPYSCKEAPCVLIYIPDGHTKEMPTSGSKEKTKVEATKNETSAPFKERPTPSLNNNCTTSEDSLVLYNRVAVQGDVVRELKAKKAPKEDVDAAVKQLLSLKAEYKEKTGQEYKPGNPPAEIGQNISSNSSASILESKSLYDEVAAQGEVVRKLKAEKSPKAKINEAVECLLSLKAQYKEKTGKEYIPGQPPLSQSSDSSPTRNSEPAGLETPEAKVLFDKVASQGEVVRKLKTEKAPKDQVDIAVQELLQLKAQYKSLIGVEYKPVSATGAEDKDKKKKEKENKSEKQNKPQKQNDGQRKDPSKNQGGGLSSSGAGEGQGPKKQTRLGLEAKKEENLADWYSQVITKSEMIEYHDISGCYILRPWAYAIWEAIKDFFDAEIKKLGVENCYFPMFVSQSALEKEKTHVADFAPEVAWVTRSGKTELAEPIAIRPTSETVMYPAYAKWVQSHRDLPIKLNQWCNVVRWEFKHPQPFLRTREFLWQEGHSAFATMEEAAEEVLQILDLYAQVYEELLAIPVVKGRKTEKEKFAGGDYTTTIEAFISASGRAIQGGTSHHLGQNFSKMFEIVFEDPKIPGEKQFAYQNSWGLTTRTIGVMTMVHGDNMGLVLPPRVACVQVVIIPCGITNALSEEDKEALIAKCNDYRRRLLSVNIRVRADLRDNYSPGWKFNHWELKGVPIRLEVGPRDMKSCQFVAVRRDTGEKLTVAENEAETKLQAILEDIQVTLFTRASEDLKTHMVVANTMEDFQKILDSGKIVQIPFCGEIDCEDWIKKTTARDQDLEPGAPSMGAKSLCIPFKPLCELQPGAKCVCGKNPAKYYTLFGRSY

Experiments:
Assay in all cases: co-IP; FLAG-tagged hThrRS-L or mutant overexpressed in HEK293T; IP with anti-FLAG, Dynabeads protein G, 4°C; endogenous partners detected by western blotting
[1] = molecular target: T1, hThrRS-L-S459D with a C-terminal FLAG tag (human) (UniProt A2RTX5)
T1 sequence: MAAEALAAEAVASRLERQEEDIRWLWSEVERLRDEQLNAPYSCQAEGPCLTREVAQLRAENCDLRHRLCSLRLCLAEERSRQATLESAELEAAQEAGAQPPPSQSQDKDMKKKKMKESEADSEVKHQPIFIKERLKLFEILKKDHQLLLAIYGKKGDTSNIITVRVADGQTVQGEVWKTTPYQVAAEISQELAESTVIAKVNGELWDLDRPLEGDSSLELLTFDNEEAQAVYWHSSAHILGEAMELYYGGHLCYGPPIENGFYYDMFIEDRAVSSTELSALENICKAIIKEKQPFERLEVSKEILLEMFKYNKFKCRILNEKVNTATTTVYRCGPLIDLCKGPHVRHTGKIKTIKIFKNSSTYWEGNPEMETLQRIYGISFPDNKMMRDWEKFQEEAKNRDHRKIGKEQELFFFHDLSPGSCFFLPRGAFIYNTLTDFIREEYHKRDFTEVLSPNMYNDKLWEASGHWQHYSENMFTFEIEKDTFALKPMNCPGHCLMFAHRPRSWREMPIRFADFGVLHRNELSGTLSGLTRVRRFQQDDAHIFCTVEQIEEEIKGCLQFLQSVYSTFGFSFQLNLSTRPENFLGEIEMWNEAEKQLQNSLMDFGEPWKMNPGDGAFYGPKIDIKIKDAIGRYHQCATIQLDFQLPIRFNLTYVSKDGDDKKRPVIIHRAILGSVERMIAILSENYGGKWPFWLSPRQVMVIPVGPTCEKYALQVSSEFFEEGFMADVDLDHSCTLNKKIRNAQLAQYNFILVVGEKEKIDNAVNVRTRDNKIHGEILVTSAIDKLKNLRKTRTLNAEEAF

[2] = molecular target: T2, hThrRS-L-Y457D with a C-terminal FLAG tag (human) (UniProt A2RTX5)
T2 sequence: T1 sequence with Y457D, D459S

[3] = molecular target: T3, hThrRS-L-Y619D with a C-terminal FLAG tag (human) (UniProt A2RTX5)
T3 sequence: T1 sequence with D459S, Y619D

Measured: binding

GluProRS, endogenous in HEK293T (from UniProt P07814 1-1512) (enzyme)
binds: all assays above
